Assay results reported in the RNAGym collection of RNA variant scans (doi:10.7554/elife.90254).
The source gives no read counts; variants with many changes may rest on few reads.

B1: LINE1-mini (parent)
chain: GGCAGAGCUCAACACAGCGUGGCAAAGUGGCUGUGGCUAGACUGCC

Variants of: B1
Experiment: self-cleavage, relative activity (ratio to wild type); higher = more cleavage; in vitro, sequencing; the parent is a self-cleaving ribozyme
Work on GGCAGAGCUCGCCACAGCGUGGCAAAGUGGCUGGGGCUAGACUGCC [A11G A12C U34G] yielded a self-cleavage of 0.01.
GGCAGAGCUCGGCACAGCGUGGCAAAGUGGCUGUGGUUAGACUGCC [A11G A12G C37U] showed a self-cleavage of 0.01.
Work on GGCAGAGCUCGGCACAGCGUGGCAAAGGGGCUGUGGCUAGACUGCC [A11G A12G U28G] yielded a self-cleavage of 0.
Work on GGCAGAGCUCGUCACAGCGUGGCAGACUGGCUGUGGCUAGACUGCC [A11G A12U A25G G27C] yielded a self-cleavage of 0.
Variant GGCAGAGCUCGUCACAGCGUGGAAAAGUGGCGGUGGCUAGACUGCC [A11G A12U C23A U32G] has a self-cleavage of 0.03.
For GGCAGAGCUCGUCACAGCGUGGGAAAGCGGCUGUGGCUACACUGCC [A11G A12U C23G U28C G40C], the self-cleavage was 0.
With GGCAGAGCUCGUCACAGCGUGGCAAAGUGGCUGUGACUAGACUGCC [A11G A12U G36A] the self-cleavage was 0.
For GGCAGAGCUCGACCGAGCGUGGCAAAGUGGCUGUGUCUAGACUGCC [A11G A14C C15G G36U], the self-cleavage was 0.02.
With GGCAGAGCUCGACCUAGCGUGGCAAAGUCGCCGCGGCUAGACUGCC [A11G A14C C15U G29C U32C U34C] the self-cleavage was 0.02.
With GGCAGAGCUCGACCCAGCGUGGGAAAGUGGCUGUGGCUAGACUGCC [A11G A14C C23G] the self-cleavage was 0.02.
Variant GGCAGAGCUCGACCCAGCGUGGCAAAGUGGCUGUGGCUAGAAUGCC [A11G A14C C42A] has a self-cleavage of 0.01.
With GGCAGAGCUCGACCCAGCGUGGCAAAGUGGCUGUGGCUAGACUGAU [A11G A14C C45A C46U] the self-cleavage was 0.03.
In the case of GGCAGAGCUCGACCCAUCGUGGGAAAGUGGCUAUGGCUAUACUGCC [A11G A14C G17U C23G G33A G40U], the self-cleavage is reported as 0.
Work on GGCAGAGCUCGACCCAGCGUCGCAAAGUAGCUGUGGCUAGACUGCC [A11G A14C G21C G29A] yielded a self-cleavage of 0.02.
GGCAGAGCUCGACGCAGCGUGGCAAAGUGGCUGUGGCUAGAAUGCC [A11G A14G C42A] gave a self-cleavage of 0.03.
Variant GGCAGAGCUCGACGCAUCGUGGCAAAGUGGCUGUGGCUAGACUGCC [A11G A14G G17U] has a self-cleavage of 0.06.
GGCAGAGCUCGACGCAGCAUGGAAAAGUGGCUGUGGCUAGACUGCC [A11G A14G G19A C23A] showed a self-cleavage of 0.02.
GGCAGAGCUCGACGCAGCGUGGCAAAGUGGCAUUGGCUAGACUGGC [A11G A14G U32A G33U C45G] showed a self-cleavage of 0.01.
GGCAGAGCUCGACUCAGCGUGGCGAAGUGGCUGUGGCUAGACGGCC [A11G A14U A24G U43G] gave a self-cleavage of 0.
GGCAGAGCUCGACUCAGCGUGGCACAGCGGCUGUGGCUAGACUGCC [A11G A14U A25C U28C] gave a self-cleavage of 0.05.
GGCAGAGCUCGACUCAGCGUGGCAAAGUGGCUGUGGGUAGACUGCC [A11G A14U C37G] showed a self-cleavage of 0.01.
GGCAGAGCUCGACACCGCGUGGCAAAGUGGCUGUGGCUAGAAGGCC [A11G A16C C42A U43G] gave a self-cleavage of 0.03.
GGCAGAGCUCGACACCGCGUGGCAAAGUGGCUGUUGCUAGACUGCC [A11G A16C G35U] gave a self-cleavage of 0.01.
With GGCAGAGCUCGACACGGAGUGGCAAAGUGGCUAUCGCUAGACUGCC [A11G A16G C18A G33A G35C] the self-cleavage was 0.02.
With GGCAGAGCUCGACACGGCAUGGCAAAGUGGCGGUGGCUAGACUGAG [A11G A16G G19A U32G C45A C46G] the self-cleavage was 0.02.
GGCAGAGCUCGACACUGCGUGGCAAAGUGGCUGUGGAUAGACUGCC [A11G A16U C37A] gave a self-cleavage of 0.03.
GGCAGAGCUCGACACUGCGUGGCAAAAUGGCUGUGGCUAGACUGCC [A11G A16U G27A] gave a self-cleavage of 0.04.
GGCAGAGCUCGACACUGCGUGGCAAAGUGGCUGUCGCUGGACUGCC [A11G A16U G35C A39G] showed a self-cleavage of 0.
In the case of GGCAGAGCUCGACACAGCGUGGCCAAGUGGAUGUGGCUAGGCUGCC [A11G A24C C31A A41G], the self-cleavage is reported as 0.01.
GGCAGAGCUCGACACAGCGUGGCCAAGUGGCUGUGGCUAGACUGUC [A11G A24C C45U] gave a self-cleavage of 0.03.
For GGCAGAGCUCGACACAGCGUGGCCAAGUGGCUGUGGCUAGACUGCU [A11G A24C C46U], the self-cleavage was 0.
Variant GGCAGAGCUCGACACAGCGUGGCCAAGUGGCAGUGGCUAGACUUCC [A11G A24C U32A G44U] has a self-cleavage of 0.03.
In the case of GGCAGAGCUCGACACAGCGUGGCGAAUUGCCUGUCGCUGGACUGCC [A11G A24G G27U G30C G35C A39G], the self-cleavage is reported as 0.01.
With GGCAGAGCUCGACACAGCGUGGCGAAGUGGCUGUUGCUAGAAUGCC [A11G A24G G35U C42A] the self-cleavage was 0.
Work on GGCAGAGCUCGACACAGCGUGGCUAAGUGGCUGUGGAUAGACUGCC [A11G A24U C37A] yielded a self-cleavage of 0.03.
With GGCAGAGCUCGACACAGCGUGGCACAGUGGCUGUGGCUAGAGGGCC [A11G A25C C42G U43G] the self-cleavage was 0.01.
In the case of GGCAGAGCUCGACACAGCGUGGCACAGUGGCUUUGGCUAGACUGCC [A11G A25C G33U], the self-cleavage is reported as 0.02.
For GGCAGAGCUCGACACAGCGUGGCAUAGUGGCUGUGACUAGACUGUC [A11G A25U G36A C45U], the self-cleavage was 0.
In the case of GGCAGAGCUCGACACAGCGUGGCAACGUUGCUGUGGCUAGACUGCC [A11G A26C G29U], the self-cleavage is reported as 0.01.
For GGCAGAGCUCGACACAGCGUGGCAAGGUGGCUGUGGCUAGAUUGCC [A11G A26G C42U], the self-cleavage was 0.06.
For GGCAGAGCUCGACACAGCGUGGCAAUAUGGCUGUGGCUAGACUGCC [A11G A26U G27A], the self-cleavage was 0.01.
Variant GGCAGAGCUCGAAACAGCGUGGCUAAGUGGCUGUGGCUAGCCUGCC [A11G C13A A24U A41C] has a self-cleavage of 0.01.
Work on GGCAGAGCUCGAAACAGCGUGGCAAAGUGGCUGUGGCUAGUCUGCC [A11G C13A A41U] yielded a self-cleavage of 0.02.
GGCAGAGCUCGAAACAGCGUGGCAAAGUGGCUGUGGCUAGACUGAU [A11G C13A C45A C46U] gave a self-cleavage of 0.02.
Variant GGCAGAGCUCGAAACAGCGUAGCAAAGUGACUGGGGCUAGACUGCA [A11G C13A G21A G30A U34G C46A] has a self-cleavage of 0.
Variant GGCAGAGCUCGAAACAGCGUGGCAAAGUUGCUGUGGCUAGACUGCC [A11G C13A G29U] has a self-cleavage of 0.06.
With GGCAGAGCUCGAAACAGCGUGGCAAAGUGGCUGUGACUAGACUGCC [A11G C13A G36A] the self-cleavage was 0.02.
Variant GGCAGAGCUCGAAACAGCGCGGCAAAGUGGCUGUGGCUAGACUGCC [A11G C13A U20C] has a self-cleavage of 0.04.
With GGCAGAGCUCGAAACAGCGUGGCAAAGUGGCUGUGGCGAGACUGCC [A11G C13A U38G] the self-cleavage was 0.01.
With GGCAGAGCUCGAGACAGCGUGGCACAGUGGCUGUGGCUAGACUGCC [A11G C13G A25C] the self-cleavage was 0.02.
GGCAGAGCUCGAGACAGCGUGGCAAAGUGGCUGUGGCUAGCCUGCC [A11G C13G A41C] showed a self-cleavage of 0.02.
Work on GGCAGAGCUCGAGAUAACGUGGCAAAGUGGCUAUGGCAAGACUGCC [A11G C13G C15U G17A G33A U38A] yielded a self-cleavage of 0.02.
For GGCAGAGCUCGAGACAACGUGGCAAAGUGGCUGUGGCUAGACUGCC [A11G C13G G17A], the self-cleavage was 0.04.
For GGCAGAGCUCGAGACAGCGUUGCAAAGUGGCUGAGGCUAGACUGCC [A11G C13G G21U U34A], the self-cleavage was 0.
Variant GGCAGAGCUCGAGACAGCGUGGCAAAAUGGCUGUGACUAGACUGCC [A11G C13G G27A G36A] has a self-cleavage of 0.05.
GGCAGAGCUCGAGACAGCGUGGCAAAGUGGCUGUGGCCAGACUGCC [A11G C13G U38C] showed a self-cleavage of 0.03.
